According to the supplement of paper PMC10126150:
Sequences with one replicate were seen in a single cluster, so their values are uncertain.

System: ATP
Assay: switch fluorescence ratio, 500 uM ATP over buffer (Cy3 cluster intensity, sum of 5 cycles each) (fold (ratio)); higher = stronger signal-on switching upon ATP binding; sequences stand for … in TCGTCGGCAGCGTCAGATGTGTATAAGAGACAGTTTTTTTTTTTTTTTTTTTTTTTTT…TC
Details: aptamer strand: ATP DNA aptamer (quencher-CACCTGGGGGAGTATTGCGGAGGAAGG + anchor), 100 nM annealed; ATP concentration: 500 uM; one replicate
Procedure, shortened: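 After annealing to 100 nM quencher-labelled ATP aptamer, Cy3-labelled switching-strand clusters on a modified Illumina MiSeq flow-cell were imaged in selection buffer. A second image followed after 15 min with 500 uM ATP at 22 °C, and five such buffer/ATP cycles were done, each separated by NaOH stripping and re-annealing. The fluorescence ratio, averaged per switch-domain sequence, is summed target-cycle over summed buffer-cycle Cy3 intensity per cluster, with clusters outside 100-1000 RFU excluded.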
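Note: ATP exposure 15 min at 22 °C before imaging.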

| Sequence | switch fluorescence ratio |
| --- | --- |
| AATATCCTAC | 1.01 |
| AATATCCTTG | 1.01 |
| AATATGAATG | 0.995 |
| AATATGGGTC | 0.948 |
| AATATGGTAG | 1 |
| AATATGTAGT | 1.03 |
| AATATTAAGT | 0.981 |
| AATATTATTT | 1.01 |
| AATATTCCTC | 1.14 |
| AATATTCGTC | 0.999 |
| AATCAACCTG | 1.08 |
| AATCAAGTTT | 1.04 |
| AATCAATGAG | 1.04 |
| AATCAGACGC | 1.05 |
| AATCATCGG | 0.965 |
| AATCATTAGT | 0.973 |
| AATCATTTA | 0.997 |
| AATCCAAACT | 1.05 |
| AATCCATAGG | 1.01 |
| AATCCATTT | 0.97 |
| AATCCCCGCC | 1.77 |
| AATCCGTCCC | 1.29 |
| AATCCTAGAA | 0.985 |
| AATCCTTTGT | 1.01 |
| AATCGAAACA | 1 |
| AATCGAATT | 1 |

| Sequence | switch fluorescence ratio |
| --- | --- |
| AATCGATTTT | 0.952 |
| AATCGCAGGC | 1.91 |
| AATCGCCGTC | 1.02 |
| AATCGCGTAC | 2.66 |
| AATCGCGTCT | 1.13 |
| AATCGCTCCG | 1.1 |
| AATCGCTTCT | 0.963 |
| AATCGGACAT | 1.04 |
| AATCGGAGGG | 0.98 |
| AATCGGCATG | 1.02 |
| AATCGGTCAT | 1.04 |
| AATCGTACAC | 1.08 |
| AATCGTCTGC | 0.989 |
| AATCGTGATA | 1.01 |
| AATCTACAAT | 1.01 |
| AATCTACTCG | 0.986 |
| AATCTCAAAG | 0.992 |
| AATCTCATAC | 1.14 |
| AATCTCTCTG | 1.01 |
| AATCTGTCCG | 1.01 |
| AATCTTATGA | 0.981 |
| AATCTTTGT | 0.972 |
| AATGAAAGTG | 0.94 |
| AATGAAATT | 0.986 |
| AATGAATCTG | 0.997 |
| AATGACCCGG | 0.973 |

| Sequence | switch fluorescence ratio |
| --- | --- |
| AATGAGGATG | 1.02 |
| AATGAGGTGT | 0.971 |
| AATGAGTCA | 0.984 |
| AATGAGTTA | 0.979 |
| AATGAGTTTC | 1 |
| AATGATGATG | 0.963 |
| AATGATTAT | 0.93 |
| AATGATTATT | 1.02 |
| AATGCACGGG | 1.19 |
| AATGCGAGGG | 0.993 |
| AATGCGTAAA | 0.97 |
| AATGCTTTAT | 1.01 |
| AATGGAGCGA | 1.04 |
| AATGGCACGC | 1.09 |
| AATGGCCCCC | 1 |
| AATGGGTAG | 1.02 |
| AATGGGTGCG | 0.993 |
| AATGGGTTT | 1.02 |
| AATGGTGAAC | 0.959 |
| AATGGTTATT | 1.01 |
| AATGTACCTT | 1.2 |
| AATGTATCGA | 0.988 |
| AATGTCATCT | 0.988 |
| AATGTCCTTT | 0.989 |
| AATGTCGA | 0.981 |
| AATGTGAGGT | 1 |

| Sequence | switch fluorescence ratio |
| --- | --- |
| AATGTGATGA | 0.996 |
| AATGTTGGC | 1.02 |
| AATTACATCT | 1.21 |
| AATTACTCTT | 1.03 |
| AATTAGTAAT | 1.03 |
| AATTATACAA | 0.989 |
| AATTATGCCA | 0.987 |
| AATTCAAATA | 1.03 |
| AATTCAACGG | 1.02 |
| AATTCATCTT | 0.99 |
| AATTCCATGG | 1.01 |
| AATTCGAGTG | 0.995 |
| AATTCGGGAC | 1 |
| AATTCGTGTA | 0.982 |
| AATTCTCGTA | 0.986 |
| AATTGAACCT | 2.14 |
| AATTGAAGTC | 0.934 |
| AATTGCAAAG | 1 |
| AATTGGCGTG | 0.967 |
| AATTGGCTGG | 1.02 |
| AATTGGTTC | 0.987 |
| AATTGTCCGT | 1.06 |
| AATTGTCTAC | 1.01 |
| AATTGTGGCC | 1.01 |
| AATTTACGGT | 1.06 |
| AATTTATGG | 1 |

| Sequence | switch fluorescence ratio |
| --- | --- |
| AATTTGCTGG | 1.03 |
| AATTTTGAAG | 1.02 |
| ACAAAATTTG | 0.983 |
| ACAAAGCGGG | 1.02 |
| ACAAAGGAAG | 0.991 |
| ACAAAGGCGT | 1.03 |
| ACAAATGAG | 1.04 |
| ACAAATTCAG | 0.969 |
| ACAACCAACA | 1.07 |
| ACAACGTGGG | 0.994 |
| ACAACTATGG | 1.03 |
| ACAAGAAGAT | 1.02 |
| ACAAGACCTC | 0.974 |
| ACAAGCTAGG | 1.01 |
| ACAAGGCAAT | 1.27 |
| ACAATAGGAC | 1.11 |
| ACAATATGC | 1.1 |
| ACAATCATAC | 1.11 |
| ACAATCCAGC | 1.05 |
| ACAATCGGTG | 1.05 |
| ACAATCTGAA | 1.03 |
| ACAATGTACT | 1.11 |
| ACAATGTGAC | 1.04 |
| ACAATTCAAT | 0.971 |
| ACAATTCGG | 0.99 |
| ACAATTGGGA | 1.02 |

| Sequence | switch fluorescence ratio |
| --- | --- |
| ACAATTTAGT | 1.06 |
| ACAATTTTTA | 1.04 |
| ACACAAGTCC | 1.05 |
| ACACAATTTA | 1.06 |
| ACACATCAGC | 1.02 |
| ACACATGGAG | 0.963 |
| ACACATTACG | 1.48 |
| ACACCATCCG | 1.13 |
| ACACCGGTCG | 0.992 |
| ACACGAAAGG | 1.05 |
| ACACGGGAAT | 1.07 |
| ACACGGTACC | 1.49 |
| ACACTAACCC | 1.24 |
| ACACTCCGTT | 1.01 |
| ACACTGCTGG | 1.05 |
| ACACTTAAAC | 1 |
| ACACTTCTGC | 1.05 |
| ACACTTTAGC | 1.03 |
| ACAGAAGTT | 0.985 |
| ACAGACGGG | 0.985 |
| ACAGAGTCGC | 1.06 |
| ACAGATAAGC | 1 |
| ACAGATAGGG | 1.04 |
| ACAGCACGGC | 1.34 |
| ACAGCGC | 0.968 |
| ACAGCGGACA | 1.07 |

| Sequence | switch fluorescence ratio |
| --- | --- |
| ACAGCGGGGC | 1 |
| ACAGCTCTGG | 0.979 |
| ACAGCTGTTC | 1.05 |
| ACAGGAAACT | 1.03 |
| ACAGGAACTC | 1.02 |
| ACAGGATTTA | 1 |
| ACAGGCCGG | 0.921 |
| ACAGGCGAGG | 1.05 |
| ACAGGCTGTG | 0.945 |
| ACAGGGCGCC | 0.987 |
| ACAGGGTTCC | 1.03 |
| ACAGTAACTC | 1.18 |
| ACAGTAAGGG | 1.01 |
| ACAGTAGGGC | 1 |
| ACAGTAGTCT | 1.02 |
| ACAGTCCTAG | 1.02 |
| ACAGTCCTTG | 1.01 |
| ACAGTCTATA | 0.993 |
| ACAGTGACCG | 1.04 |
| ACAGTGGCAC | 0.933 |
| ACAGTTCGCT | 1.07 |
| ACAGTTCTGC | 1.02 |
| ACATAACTT | 1.17 |
| ACATAAGACT | 1.04 |
| ACATAATCGA | 1.04 |
| ACATACTACC | 1.39 |

| Sequence | switch fluorescence ratio |
| --- | --- |
| ACATAGGTCG | 1.11 |
| ACATAGTGAT | 1.02 |
| ACATATGGGG | 0.98 |
| ACATCAAAGG | 1.07 |
| ACATCACGGT | 1.48 |
| ACATCCCT | 1.11 |
| ACATCCGTCC | 1.3 |
| ACATCCTCGT | 1.02 |
| ACATCCTTTA | 1.01 |
| ACATCGCTGG | 1.09 |
| ACATCGT | 0.986 |
| ACATCGTGGC | 0.985 |
| ACATCTGTTG | 0.968 |
| ACATGACGCT | 1.04 |
| ACATGATTTT | 1.01 |
| ACATGCACAT | 1.17 |
| ACATGCAGGT | 0.994 |
| ACATGCGGTT | 1.05 |
| ACATGCTTGC | 0.992 |
